In all, about 310,000 compounds went through this assay and about 14,000 (4.5%) showed an effect of 50% or more. Effects have a minus sign here. The list shows a part of the results.
target: human ether-à-go-go-related gene (hERG) potassium channel (human, UniProt Q12809); test: primary screen, population patch clamp on CHO cells stably expressing hERG
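Note: peak tail current of the secondary pulse compared with the same well before compound.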

human ether-à-go-go-related gene (hERG) potassium channel, sequence (Q12809 whole entry, looked up): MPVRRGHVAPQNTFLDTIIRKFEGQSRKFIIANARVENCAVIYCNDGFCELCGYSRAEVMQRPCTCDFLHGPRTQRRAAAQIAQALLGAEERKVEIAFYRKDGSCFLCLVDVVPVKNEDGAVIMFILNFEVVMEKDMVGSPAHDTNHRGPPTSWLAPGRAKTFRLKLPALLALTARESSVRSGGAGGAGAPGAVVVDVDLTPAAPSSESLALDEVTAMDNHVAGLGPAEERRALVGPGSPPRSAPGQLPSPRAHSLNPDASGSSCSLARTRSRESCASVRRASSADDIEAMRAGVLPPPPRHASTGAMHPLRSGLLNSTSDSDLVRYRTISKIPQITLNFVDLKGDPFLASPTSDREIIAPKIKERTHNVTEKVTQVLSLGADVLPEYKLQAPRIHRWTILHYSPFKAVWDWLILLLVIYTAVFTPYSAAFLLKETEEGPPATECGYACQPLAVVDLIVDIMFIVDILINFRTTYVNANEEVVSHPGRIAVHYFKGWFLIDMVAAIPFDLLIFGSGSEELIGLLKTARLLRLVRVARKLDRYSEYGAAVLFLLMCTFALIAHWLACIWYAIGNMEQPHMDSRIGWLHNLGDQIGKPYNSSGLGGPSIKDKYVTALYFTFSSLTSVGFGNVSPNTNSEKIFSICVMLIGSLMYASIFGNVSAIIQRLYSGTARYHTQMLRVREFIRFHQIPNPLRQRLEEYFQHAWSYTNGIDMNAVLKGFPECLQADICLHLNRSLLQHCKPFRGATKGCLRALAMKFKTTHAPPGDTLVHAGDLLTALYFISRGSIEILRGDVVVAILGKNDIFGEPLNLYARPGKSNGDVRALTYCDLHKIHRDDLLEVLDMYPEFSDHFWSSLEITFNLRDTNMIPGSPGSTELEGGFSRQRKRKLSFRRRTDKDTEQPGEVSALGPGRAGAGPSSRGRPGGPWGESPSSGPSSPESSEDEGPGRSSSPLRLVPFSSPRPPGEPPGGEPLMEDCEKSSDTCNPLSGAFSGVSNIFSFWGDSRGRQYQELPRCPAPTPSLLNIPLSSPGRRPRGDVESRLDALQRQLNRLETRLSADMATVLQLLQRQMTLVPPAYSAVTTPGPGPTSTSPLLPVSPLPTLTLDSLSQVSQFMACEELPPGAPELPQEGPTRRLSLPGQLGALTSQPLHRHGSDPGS

Structure (SMILES)	hERG current change (%, negative = inhibition) at 10uM [%]
COC(=O)c1cc(NS(=O)(=O)c2ccc(NC(C)=O)cc2)cc(C(=O)OC)c1	0.11
COc1ccc(CC(=O)Nc2cc(=O)n(C)c(=O)n2C)cc1OC	23.5
CCc1cccc(NC(=O)C2CCCN2C(=O)Nc2ccc(C)cc2)c1 (stereo not shown)	13.5
COc1ccc(C(CNC(=O)c2cc3c(s2)CCCC3)N2CCOCC2)cc1 (stereo not shown)	-23.5
Cc1cccc(C)c1C(OCCN(C)C)C1CCCCC1.O=C(O)C(=O)O (stereo not shown)	-11.7
CC1(C)SC(=S)N(/N=C/c2ccccc2)C1N(O)C(=O)Nc1ccc([N+](=O)[O-])cc1 (stereo not shown)	8.43
CC(/C=N/NC(=O)COc1ccccc1C)=N\NC(=O)COc1ccccc1C	21.9
CCOc1ccc(NC(=O)C2C3C=CC4(O3)C2C(=O)N(Cc2cccnc2)C4C(=O)NC2CCCCC2)cc1 (stereo not shown)	16
COc1ccc(-c2csc3nc(-c4ccccc4OC)oc(=O)c23)cc1	19.1
Cc1ccc(S(=O)(=O)N(C)C)cc1NC(=O)COC(=O)Cc1cccs1	-74.5
Cc1ccn2cc(C34CC5CC(CC(C5)C3)C4)nc2c1	-31.1
CC1(C)Oc2ccc(C(=O)N3CCCC3)cc2N(CC(=O)NCc2ccccc2)C1=O	-3.94
CCOC(=O)c1cccc(NC(=S)NC(=O)c2cccnc2)c1	6.13
COC(=O)N/N=C/c1cn(CCCOc2ccc(C)cc2)c2ccccc12	-0.441
COC(=O)C(C(=O)OC)C(C(=O)OC)C(C(=O)OC)C(=O)OC	-1.88
CCCC[C@H](CN[C@@H](CNC)[C@H](C)CC)NCCC12CCC(CC1)C2	10.4
CCS(=O)(=O)N1CCN(Cc2nc3ccccc3c(=O)[nH]2)CC1	-12.9
Cc1cc(S(=O)(=O)N2CCN(c3ccccc3O)CC2)c(C)s1	-8.47
COc1c(Br)cc(/C=N/n2c(-c3ccccc3)n[nH]c2=S)c(O)c1Br	22.8
COc1cccc(C(=O)Nc2ccc(NC(=O)C3CC=CCC3C(=O)O)cc2)c1 (stereo not shown)	24
CC(C(=O)Nc1ncc([N+](=O)[O-])s1)N1C(=O)c2ccccc2S1(=O)=O (stereo not shown)	-3.37
O=C(CCn1ccnc1)Nc1cc(Cl)ccc1O	14.3

Structure (SMILES)	hERG current change (%, negative = inhibition) at 10uM [%]
CC1CC(C)CN(CCCNC(=O)C2CCC(=O)N2C2CCCC2)C1 (stereo not shown)	11
CC(=O)N1c2ccc(S(=O)(=O)NCC3CCC(C(=O)Nc4cc(C)ccn4)CC3)cc2CC1C (stereo not shown)	5.06
CC(/C=N/NC(=O)c1cc(-c2cccn2C)n[nH]1)=C\c1ccccc1	-3.38
CCn1c(SCC(=O)NNC(=O)c2ccc(C)cc2)nnc1C(C)C	19.8
Cc1ccc(Cl)cc1N1CCN(C(c2ccc(C#N)cc2)c2nnnn2C2CCCC2)CC1 (stereo not shown)	5.19
CC(O)CSc1nc2c(c(=O)[nH]c(=O)n2C)n1Cc1ccccc1 (stereo not shown)	-41.1
CCN(CC(=O)Nc1c(F)cccc1F)C(=O)C(C)SCc1nc2sc(C)c(C)c2c(=O)[nH]1 (stereo not shown)	-34
Oc1[nH]c2ccc(Br)cc2c1N=Nc1nn[nH]n1	18.4
COC(=O)c1cc(C)nc(N)c1C#N	-5.58
COc1cc(C#N)c(NC(=S)N2CCOCC2)cc1OC	16.2
CCCCCCCNC(=O)C1(CC2CC(c3ccccc3)=NO2)CCNCC1 (stereo not shown)	-58.8
O=C(Nc1ccc2c(c1)OCCO2)c1ccccn1	17
O=C(CCCOc1ccc(Cl)cc1Cl)N/N=C/c1ccccc1O	53.6
CN(C)/C=C(/C(=O)c1ccc(Cl)c(Cl)c1)c1nnnn1-c1ccccc1	9.85
COc1ccc(-c2nc(NC(C)=O)sc2-c2ccc(OC)cc2)cc1	25.4
COc1ccc(C(=O)Nc2ccc(NC(=O)C3CCCCC3)nc2)cc1	27.2
COc1ccc(Cc2nnc(NC(=O)C3CC(=O)N(c4ccc(OC)cc4)C3)s2)cc1 (stereo not shown)	8.2
O=C(O)CCCCC1CCSS1 (stereo not shown)	7.97
COc1ccc(C(=O)Nc2ccc(O)cc2C(=O)O)cc1	19.1
CCN(CC(=O)NC1CCS(=O)(=O)C1)C(=O)C(c1ccccc1)c1ccccc1 (stereo not shown)	-2.13
COC(=O)N/N=C/c1cccc(OCCSc2ccc(Cl)cc2)c1	11.5
O=C(Nc1ccc(OCC(=O)N2CCOCC2)cc1)c1ccccc1Cl	2.36

Structure (SMILES)	hERG current change (%, negative = inhibition) at 10uM [%]
O=C1NCN(c2ccccc2)C12CCNCC2	3.05
CCCCn1nnc(NC(=O)Cc2ccc(Cl)cc2)n1	-16.6
CCCCOC(=S)NC(=O)c1sc2ccccc2c1Cl	0.519
Cc1cc(C2=NNC(=NCCc3ccccc3)SC2)c(C)n1CC1CCCO1 (stereo not shown)	-40.5
Cl.Oc1cccc(CN2CCCCC2)c1	-1.76
CC(C)(C)c1cc(NCCCn2ccnc2)n2ncc(-c3ccccc3)c2n1	-18
COc1cc(/C=N/NC(=O)CN2CC(c3ccccc3)CC2=O)ccc1OC(=O)N(C)C (stereo not shown)	-4
O=C(Cn1nc(-c2ccccc2)ccc1=O)NCCN1CCN(Cc2ccccc2)CC1	-19.1
Cc1nn(Cc2ccccc2)c(Cl)c1C(=O)OCC#N	-4.65
CC(C)(C)c1ccc(-c2conc2N)cc1	5.58
CCc1ccc(NC(=O)c2cc(S(=O)(=O)N3CCCC3)c[nH]2)cc1	9.7
CCOC(=O)c1c(NC(=O)CN2C(=O)NC3(CCC(CC)CC3)C2=O)sc(C)c1-c1ccc(C)cc1 (stereo not shown)	2.08
CCOc1cc(C(=O)NC(C)Cc2cccs2)cc(OCC)c1OCC (stereo not shown)	7.63
CCCCNC(=O)CS(=O)Cc1nc(-c2cccc(C)c2)oc1C (stereo not shown)	-5.91
CCOCCCNC(=O)C1CCC(CNS(=O)(=O)c2ccc(Cl)cc2)CC1 (stereo not shown)	-12
CCN(C(=O)CSc1nc2ccc([N+](=O)[O-])cc2s1)C1CCS(=O)(=O)C1 (stereo not shown)	-61.8
O=C(Oc1ccc(N2C(=O)C3C4CCC(C4)C3C2=O)cc1)c1ccco1 (stereo not shown)	13.2
COC(=O)C1=C(c2cccc(C#N)c2)C[C@@H]2CC[C@H]1N2C(=O)NCCNC(C)=O	20.3
CCCCCCCN1CCC(=O)N(CCO)CC1	-54.3
O=[N+]([O-])c1ccc(Cl)c(/C=N/N2CCN(c3ccccc3)CC2)c1	7.73
CC(C)CN(C(=O)COC(=O)CCC(=O)c1ccc(Cl)cc1)c1c(N)n(Cc2ccccc2)c(=O)[nH]c1=O	10.4
COc1cccc(NC(=O)[C@H](NC(=O)[C@@H]2Cc3ccccc3CN2)c2ccccc2)c1	-76.4

Structure (SMILES)	hERG current change (%, negative = inhibition) at 10uM [%]
CCOC(=O)N1CCN(C(=O)/C(=C\c2cccs2)NC(=O)c2cccs2)CC1	-71.8
O=C(c1cncc(Br)c1)N1CCN(c2ccc(N3CCOCC3)nn2)CC1	-2.06
C/C(=N\NC(=O)CN1CCN(Cc2ccccc2)CC1)c1cccs1	-50.9
Nc1nnc(-c2cccc(F)c2)s1	13.7
COC(=O)[C@@]12CCCN1[C@H](c1ccc(-c3ccc(Cl)c(Cl)c3)cc1)[C@H]1C(=O)N(C)C(=O)[C@H]12.O=C(O)C(F)(F)F	-25.5
CN(C)CCCN1C(=O)c2cccc3c(Br)ccc(c23)C1=O	-66.4
COc1ccc(OCC(=O)Nc2cccc(S(=O)(=O)N(C)c3ccccc3)c2)c([N+](=O)[O-])c1	-6.21
CN1CCN(C(=O)CCN2C(=O)/C(=C/c3ccc(F)cc3)SC2=S)CC1	-4.02
O=C(c1nc2ccccn2c1CNCCOc1cccnc1)N1CCOCC1	9.08
O=C1NCCN(Cc2ccoc2)C1CC(=O)N(Cc1ccccc1)CC1CCC1 (stereo not shown)	8.87
O=C(c1ccccc1Oc1ccccc1)N1CCN(c2ccc(F)cc2)CC1	-33.9
O=C(CSc1nc2ncc(Cl)cc2[nH]1)N(Cc1ccccc1)C1CCS(=O)(=O)C1 (stereo not shown)	-2.63
c1ccc(-c2nc3c4ccccc4ccn3c2CN2CCCCC2)cc1	-16
Cc1cc(C)cc(N(CCC#N)C(=O)COC(=O)c2nc3nc(C)cc(C)n3n2)c1	-14.5
O=C(CSc1cn(CCNC(=O)c2ccccc2F)c2ccccc12)NCC1CCCO1 (stereo not shown)	-6.8
COc1ccc2c(c1)CCc1cnc(N)nc1-2	2.76
CCC(C)(C)NC(=O)Cc1ccccc1OC	23
O=C(NCCCNC(=O)c1ccccn1)c1ccc(F)cc1	18.6
Oc1ccccc1N=Nc1nc(-c2ccccc2)c(-c2ccccc2)[nH]1	1.55
Cc1c(C(=O)OC2CCCC2C)[nH]c2c1C(=O)CCC2 (stereo not shown)	-16
Cc1ccc(/C=C/C(=O)Nc2nn[nH]n2)o1	17.7
C=CCC(=O)NC1CCCc2c1cnn2-c1cc(F)cc(F)c1 (stereo not shown)	-75.7
